Test results: the supplement of paper PMC8285479
Where a name gives a salt, the structure may show the parent alone. ± gives the standard deviation of the averaged measurements. In all, about 1,900 compounds were measured (“normalised cell viability (NPI; 0 = phenylarsine oxide control, 1 = DMSO control)”: median about 1, lowest 2% from about 0.039 on). The list shows a part of the results.

Test system: NCI-H1944
Test: normalised cell viability (NPI; 0 = phenylarsine oxide control, 1 = DMSO control) (fraction of DMSO control); NCI-H1944 is a non-small cell lung cancer line; higher = more viable cells (less compound toxicity)
Conditions: 6 days
[1] = glucocorticoid arm: hydrocortisone 2.75 uM co-treatment, compound 1 µM
[2] = glucocorticoid arm: hydrocortisone 2.75 uM co-treatment, compound 5 µM
[3] = glucocorticoid arm: hydrocortisone 2.75 uM pre-treated 2 days and continued, compound 1 µM
[4] = glucocorticoid arm: hydrocortisone 2.75 uM pre-treated 2 days and continued, compound 5 µM
[5] = glucocorticoid arm: vehicle, compound 1 µM
[6] = glucocorticoid arm: vehicle, compound 5 µM
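Further: CTB read-out in 384-well plates, mean of triplicate wells, normalised per plate against 1 µM phenylarsine oxide and 0.1% DMSO, compounds added 24 h after seeding.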

CC(C)COC(=O)OCN1C(=O)CN(CCN2CC(=O)N(COC(=O)OCC(C)C)C(=O)C2)CC1=O [Sobuzoxane]
normalised cell viability [1]: 0.997 ± 0.003
normalised cell viability [2]: 0.992 ± 0.0098
normalised cell viability [3]: 1.03 ± 0.042
normalised cell viability [4]: 1.02 ± 0.027
normalised cell viability [5]: 1.002 ± 0.0076
normalised cell viability [6]: 0.9833 ± 0.0083

Nc1ccc(-c2ccc3ccccc3n2)cc1 [BF-170 hydrochloride]
normalised cell viability [1]: 0.9843 ± 0.0029
normalised cell viability [2]: 0.9947 ± 0.0092
normalised cell viability [3]: 1.01 ± 0.021
normalised cell viability [4]: 0.9853 ± 0.0045
normalised cell viability [5]: 0.9917 ± 0.0042
normalised cell viability [6]: 0.9827 ± 0.0097

COC(=O)[C@@H]1[C@H]2C[C@H]3c4[nH]c5ccccc5c4CCN3C[C@@H]2CC[C@@H]1O [Yohimbine hydrochloride]
normalised cell viability [1]: 1 ± 0.013
normalised cell viability [2]: 1.03 ± 0.015
normalised cell viability [3]: 1.02 ± 0.017
normalised cell viability [4]: 1.01 ± 0.023
normalised cell viability [5]: 1.007 ± 0.0058
normalised cell viability [6]: 1.01 ± 0.015

CN(C)CCSSCCNC(=O)C1CCN(C(=O)CSc2ccc(Cl)cc2)CC1
normalised cell viability [1]: 1.01 ± 0.01
normalised cell viability [2]: 1.04 ± 0.015
normalised cell viability [3]: 1.027 ± 0.0058
normalised cell viability [4]: 1.05 ± 0.01
normalised cell viability [5]: 0.9967 ± 0.0035
normalised cell viability [6]: 0.9967 ± 0.0042

CC(C)C[C@H](NC(=O)[C@H]1O[C@@H]1C(=O)O)C(=O)NCCCCN=C(N)N
normalised cell viability [1]: 1.002 ± 0.0068
normalised cell viability [2]: 1.01 ± 0.012
normalised cell viability [3]: 1.003 ± 0.0061
normalised cell viability [4]: 1.01 ± 0.023
normalised cell viability [5]: 1.007 ± 0.0058
normalised cell viability [6]: 1.003 ± 0.0058

CC1(C)NC(=O)N(c2ccc([N+](=O)[O-])c(C(F)(F)F)c2)C1=O [Nilutamide]
normalised cell viability [1]: 1 ± 0.014
normalised cell viability [2]: 0.9927 ± 0.0046
normalised cell viability [3]: 0.996 ± 0.004
normalised cell viability [4]: 1.04 ± 0.061
normalised cell viability [5]: 1.017 ± 0.0058
normalised cell viability [6]: 1.03 ± 0.021

CN(C)Cc1ccc(-c2nc3cccc4c3n2CCNC4=O)cc1
normalised cell viability [1]: 0.98 ± 0.014
normalised cell viability [2]: 1 ± 0.014
normalised cell viability [3]: 0.977 ± 0.013
normalised cell viability [4]: 1.01 ± 0.016
normalised cell viability [5]: 0.987 ± 0.003
normalised cell viability [6]: 0.971 ± 0.012

Cc1[nH]c(/C=C2\C(=O)Nc3ccc(S(=O)(=O)N(C)c4cccc(Cl)c4)cc32)c(C)c1C(=O)N1CCN(C)CC1
normalised cell viability [1]: 0.9913 ± 0.0072
normalised cell viability [2]: 0.986 ± 0.012
normalised cell viability [3]: 1.003 ± 0.0058
normalised cell viability [4]: 0.989 ± 0.014
normalised cell viability [5]: 0.969 ± 0.01
normalised cell viability [6]: 0.849 ± 0.036

Cc1nc(NC(=O)N2CCC[C@H]2C(N)=O)sc1-c1ccnc(C(C)(C)C(F)(F)F)c1
normalised cell viability [1]: 0.751 ± 0.046
normalised cell viability [2]: 0.509 ± 0.015
normalised cell viability [3]: 0.781 ± 0.011
normalised cell viability [4]: 0.583 ± 0.027
normalised cell viability [5]: 0.936 ± 0.014
normalised cell viability [6]: 0.6607 ± 0.0029

CC(C)NCC(O)COc1cccc2ccccc12 (stereo unspecified) [Propranolol HCl]
normalised cell viability [1]: 1.03
normalised cell viability [2]: 1.01 ± 0.018
normalised cell viability [3]: 1.03 ± 0.011
normalised cell viability [4]: 1.04 ± 0.011
normalised cell viability [5]: 0.9913 ± 0.0011
normalised cell viability [6]: 0.9797 ± 0.0031

Nc1ncnc2c1c(-c1cnc3[nH]ccc3c1)nn2C1CCCC1
normalised cell viability [1]: 0.425 ± 0.051
normalised cell viability [2]: 0.132 ± 0.0044
normalised cell viability [3]: 0.393 ± 0.019
normalised cell viability [4]: 0.15 ± 0.013
normalised cell viability [5]: 0.548 ± 0.027
normalised cell viability [6]: 0.0446 ± 0.004

C[C@@H](NC(=O)/C(C#N)=C/c1ccc(O)c(O)c1)c1ccccc1 [Tyrphostin AG 527]
normalised cell viability [1]: 1.013 ± 0.0058
normalised cell viability [2]: 0.9963 ± 0.0038
normalised cell viability [3]: 0.879 ± 0.22
normalised cell viability [4]: 0.999 ± 0.011
normalised cell viability [5]: 1.003 ± 0.0058
normalised cell viability [6]: 1.003 ± 0.0061

N#C/C(=C/c1ccc(O)c(O)c1)C(=O)N1CCc2ccccc21 [Tyrphostin AG 528]
normalised cell viability [1]: 0.993 ± 0.0089
normalised cell viability [2]: 0.987 ± 0.032
normalised cell viability [3]: 1.02 ± 0.031
normalised cell viability [4]: 0.9767 ± 0.0095
normalised cell viability [5]: 1.003 ± 0.0058
normalised cell viability [6]: 1.02 ± 0.01

CCC1=C(C)CN(C(=O)NCCc2ccc(S(=O)(=O)NC(=O)N[C@H]3CC[C@H](C)CC3)cc2)C1=O [Glimepiride]
normalised cell viability [1]: 0.9887 ± 0.0096
normalised cell viability [2]: 1.02 ± 0.015
normalised cell viability [3]: 1.01 ± 0.015
normalised cell viability [4]: 1.03 ± 0.011
normalised cell viability [5]: 1.003 ± 0.0058
normalised cell viability [6]: 1.01 ± 0.012

O=C1CCc2cc(OCCCCc3nnnn3C3CCCCC3)ccc2N1 [Cilostazol]
normalised cell viability [1]: 1 ± 0.011
normalised cell viability [2]: 1.03 ± 0.015
normalised cell viability [3]: 1 ± 0.013
normalised cell viability [4]: 1.025 ± 0.0071
normalised cell viability [5]: 0.9897 ± 0.009
normalised cell viability [6]: 1.007 ± 0.0058

N#C[C@@H]1C[C@@H]2C[C@@H]2N1C(=O)[C@@H](N)C12CC3CC(CC(O)(C3)C1)C2
normalised cell viability [1]: 0.977 ± 0.018
normalised cell viability [2]: 0.991 ± 0.033
normalised cell viability [3]: 1 ± 0.019
normalised cell viability [4]: 1.01 ± 0.012
normalised cell viability [5]: 0.99 ± 0.0089
normalised cell viability [6]: 0.997 ± 0.012
